# Results are given in words; binding and its absence hold for the method and conditions named. In cells and extracts the contact can be indirect. Some entries that bind do so weakly or less than the wild type. For some assays here: Where a sequence is shown, tags or fusion partners need not be part of it.
# The chains behind the UniProt entries cited, without tags or fusion partners.
# UniProt Q96GD4: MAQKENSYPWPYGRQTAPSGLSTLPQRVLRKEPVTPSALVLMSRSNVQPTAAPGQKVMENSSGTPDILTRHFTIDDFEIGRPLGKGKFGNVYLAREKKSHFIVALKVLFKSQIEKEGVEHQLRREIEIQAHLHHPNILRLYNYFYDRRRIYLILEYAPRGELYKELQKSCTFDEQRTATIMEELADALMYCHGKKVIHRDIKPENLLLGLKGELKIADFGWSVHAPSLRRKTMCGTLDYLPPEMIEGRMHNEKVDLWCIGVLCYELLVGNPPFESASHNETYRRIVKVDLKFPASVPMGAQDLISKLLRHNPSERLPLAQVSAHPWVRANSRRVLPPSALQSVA
# T1: Flag-USP3 (ubiquitin specific peptidase 3) (human) (UniProt Q9Y6I4)
# T1 sequence: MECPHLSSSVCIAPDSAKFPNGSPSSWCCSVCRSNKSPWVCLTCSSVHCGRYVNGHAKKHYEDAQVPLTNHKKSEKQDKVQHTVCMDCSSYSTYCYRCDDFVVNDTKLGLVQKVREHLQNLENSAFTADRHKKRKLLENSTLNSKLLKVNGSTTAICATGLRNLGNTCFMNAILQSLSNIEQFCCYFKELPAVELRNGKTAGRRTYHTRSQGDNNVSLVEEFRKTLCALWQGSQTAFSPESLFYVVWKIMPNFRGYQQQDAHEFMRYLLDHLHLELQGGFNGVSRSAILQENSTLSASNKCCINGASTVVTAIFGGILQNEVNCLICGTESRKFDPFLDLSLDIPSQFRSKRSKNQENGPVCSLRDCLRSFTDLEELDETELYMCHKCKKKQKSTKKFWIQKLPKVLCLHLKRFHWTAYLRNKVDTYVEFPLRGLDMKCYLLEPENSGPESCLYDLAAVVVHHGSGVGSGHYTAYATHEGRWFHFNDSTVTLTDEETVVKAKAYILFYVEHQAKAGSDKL
# T2: HA-Aurora A (UniProt O14965)
# T2 sequence: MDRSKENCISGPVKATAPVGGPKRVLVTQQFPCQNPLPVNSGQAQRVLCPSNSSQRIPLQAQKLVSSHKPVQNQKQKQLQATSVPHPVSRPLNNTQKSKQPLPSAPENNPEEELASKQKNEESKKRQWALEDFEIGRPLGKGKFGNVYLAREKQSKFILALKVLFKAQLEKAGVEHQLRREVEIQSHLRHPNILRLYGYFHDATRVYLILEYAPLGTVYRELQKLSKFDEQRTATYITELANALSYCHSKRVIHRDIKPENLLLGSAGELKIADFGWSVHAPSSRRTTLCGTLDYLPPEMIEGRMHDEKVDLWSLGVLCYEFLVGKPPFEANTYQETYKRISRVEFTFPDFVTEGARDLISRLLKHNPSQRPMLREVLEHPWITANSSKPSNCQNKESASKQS
# T3: USP3, endogenous (human) (UniProt Q9Y6I4)
# T3 sequence: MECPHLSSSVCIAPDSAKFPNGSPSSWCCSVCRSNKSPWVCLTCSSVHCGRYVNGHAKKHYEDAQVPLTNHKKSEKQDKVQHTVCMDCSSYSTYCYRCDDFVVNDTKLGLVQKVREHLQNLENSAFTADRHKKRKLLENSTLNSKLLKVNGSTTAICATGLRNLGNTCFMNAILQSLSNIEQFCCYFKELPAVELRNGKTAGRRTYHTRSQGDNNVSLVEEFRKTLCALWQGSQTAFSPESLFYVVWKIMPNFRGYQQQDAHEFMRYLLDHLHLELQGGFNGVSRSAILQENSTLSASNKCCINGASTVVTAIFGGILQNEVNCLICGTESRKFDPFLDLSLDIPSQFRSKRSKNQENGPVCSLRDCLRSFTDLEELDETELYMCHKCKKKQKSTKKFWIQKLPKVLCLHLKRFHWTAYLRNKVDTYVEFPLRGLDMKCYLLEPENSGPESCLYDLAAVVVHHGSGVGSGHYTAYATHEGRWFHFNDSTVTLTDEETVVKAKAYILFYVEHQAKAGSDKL
# How the values were obtained:
# [1] = biological target: T1, Flag-USP3 (ubiquitin specific peptidase 3) (human); assay: co-IP; ECa109 cells with exogenous Flag-USP3 and HA-Aurora A, RIPA lysate, anti-Flag beads overnight at 4 °C, western blot (Fig. 5B)
# [2] = biological target: T2, HA-Aurora A; assay: co-IP; ECa109 cells with exogenous Flag-USP3 and HA-Aurora A, RIPA lysate, immunoprecipitation of Aurora A (anti-HA beads) overnight at 4 °C, western blot (Fig. 5C)
# [3] = biological target: T3, USP3, endogenous (human); assay: co-IP; endogenous co-immunoprecipitation of USP3 and Aurora A (Fig. 5D and E)
# [4] = biological target: T1, Flag-USP3 (ubiquitin specific peptidase 3) (human); assay: co-IP; co-immunoprecipitation of Aurora A K143R and USP3 (Fig. 5F); which protein was precipitated is not told
molecule,measurement,setting,value
Aurora B (from UniProt Q96GD4 1-344) (enzyme),binding,[1],no binding
"HA-Aurora A (enzyme, UniProt O14965 1-403) MDRSKENCISGPVKATAPVGGPKRVLVTQQFPCQNPLPVNSGQAQRVLCPSNSSQRIPLQAQKLVSSHKPVQNQKQKQLQATSVPHPVSRPLNNTQKSKQPLPSAPENNPEEELASKQKNEESKKRQWALEDFEIGRPLGKGKFGNVYLAREKQSKFILALKVLFKAQLEKAGVEHQLRREVEIQSHLRHPNILRLYGYFHDATRVYLILEYAPLGTVYRELQKLSKFDEQRTATYITELANALSYCHSKRVIHRDIKPENLLLGSAGELKIADFGWSVHAPSSRRTTLCGTLDYLPPEMIEGRMHDEKVDLWSLGVLCYEFLVGKPPFEANTYQETYKRISRVEFTFPDFVTEGARDLISRLLKHNPSQRPMLREVLEHPWITANSSKPSNCQNKESASKQS",binding,[1],binds
"Flag-USP3 (ubiquitin specific peptidase 3) (enzyme, UniProt Q9Y6I4 1-520) MECPHLSSSVCIAPDSAKFPNGSPSSWCCSVCRSNKSPWVCLTCSSVHCGRYVNGHAKKHYEDAQVPLTNHKKSEKQDKVQHTVCMDCSSYSTYCYRCDDFVVNDTKLGLVQKVREHLQNLENSAFTADRHKKRKLLENSTLNSKLLKVNGSTTAICATGLRNLGNTCFMNAILQSLSNIEQFCCYFKELPAVELRNGKTAGRRTYHTRSQGDNNVSLVEEFRKTLCALWQGSQTAFSPESLFYVVWKIMPNFRGYQQQDAHEFMRYLLDHLHLELQGGFNGVSRSAILQENSTLSASNKCCINGASTVVTAIFGGILQNEVNCLICGTESRKFDPFLDLSLDIPSQFRSKRSKNQENGPVCSLRDCLRSFTDLEELDETELYMCHKCKKKQKSTKKFWIQKLPKVLCLHLKRFHWTAYLRNKVDTYVEFPLRGLDMKCYLLEPENSGPESCLYDLAAVVVHHGSGVGSGHYTAYATHEGRWFHFNDSTVTLTDEETVVKAKAYILFYVEHQAKAGSDKL",binding,[2],binds
"Aurora A, endogenous (enzyme, UniProt O14965 1-403) MDRSKENCISGPVKATAPVGGPKRVLVTQQFPCQNPLPVNSGQAQRVLCPSNSSQRIPLQAQKLVSSHKPVQNQKQKQLQATSVPHPVSRPLNNTQKSKQPLPSAPENNPEEELASKQKNEESKKRQWALEDFEIGRPLGKGKFGNVYLAREKQSKFILALKVLFKAQLEKAGVEHQLRREVEIQSHLRHPNILRLYGYFHDATRVYLILEYAPLGTVYRELQKLSKFDEQRTATYITELANALSYCHSKRVIHRDIKPENLLLGSAGELKIADFGWSVHAPSSRRTTLCGTLDYLPPEMIEGRMHDEKVDLWSLGVLCYEFLVGKPPFEANTYQETYKRISRVEFTFPDFVTEGARDLISRLLKHNPSQRPMLREVLEHPWITANSSKPSNCQNKESASKQS",binding,[3],binds
"Aurora A K143R (enzyme, UniProt O14965 1-403) MDRSKENCISGPVKATAPVGGPKRVLVTQQFPCQNPLPVNSGQAQRVLCPSNSSQRIPLQAQKLVSSHKPVQNQKQKQLQATSVPHPVSRPLNNTQKSKQPLPSAPENNPEEELASKQKNEESKKRQWALEDFEIGRPLGKGRFGNVYLAREKQSKFILALKVLFKAQLEKAGVEHQLRREVEIQSHLRHPNILRLYGYFHDATRVYLILEYAPLGTVYRELQKLSKFDEQRTATYITELANALSYCHSKRVIHRDIKPENLLLGSAGELKIADFGWSVHAPSSRRTTLCGTLDYLPPEMIEGRMHDEKVDLWSLGVLCYEFLVGKPPFEANTYQETYKRISRVEFTFPDFVTEGARDLISRLLKHNPSQRPMLREVLEHPWITANSSKPSNCQNKESASKQS",binding,[4],binds
